Drawing on PMC12831459, this text covers binding for three molecules.

Sequences of proteins named here, by UniProt entry; tags and fusion partners are left off.
UniProt P05412: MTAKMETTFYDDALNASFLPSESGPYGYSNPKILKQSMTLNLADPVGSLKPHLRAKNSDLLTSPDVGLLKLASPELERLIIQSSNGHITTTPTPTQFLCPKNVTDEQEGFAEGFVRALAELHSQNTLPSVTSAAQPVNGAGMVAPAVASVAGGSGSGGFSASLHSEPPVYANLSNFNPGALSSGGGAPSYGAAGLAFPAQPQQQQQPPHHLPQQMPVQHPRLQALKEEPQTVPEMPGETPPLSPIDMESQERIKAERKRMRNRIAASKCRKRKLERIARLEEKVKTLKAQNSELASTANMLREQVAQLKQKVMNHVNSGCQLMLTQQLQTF

Assay [1] has as its target T1, Nanoluc (Nluc)-tagged SMAD4 (human), Q13485.
T1 chain: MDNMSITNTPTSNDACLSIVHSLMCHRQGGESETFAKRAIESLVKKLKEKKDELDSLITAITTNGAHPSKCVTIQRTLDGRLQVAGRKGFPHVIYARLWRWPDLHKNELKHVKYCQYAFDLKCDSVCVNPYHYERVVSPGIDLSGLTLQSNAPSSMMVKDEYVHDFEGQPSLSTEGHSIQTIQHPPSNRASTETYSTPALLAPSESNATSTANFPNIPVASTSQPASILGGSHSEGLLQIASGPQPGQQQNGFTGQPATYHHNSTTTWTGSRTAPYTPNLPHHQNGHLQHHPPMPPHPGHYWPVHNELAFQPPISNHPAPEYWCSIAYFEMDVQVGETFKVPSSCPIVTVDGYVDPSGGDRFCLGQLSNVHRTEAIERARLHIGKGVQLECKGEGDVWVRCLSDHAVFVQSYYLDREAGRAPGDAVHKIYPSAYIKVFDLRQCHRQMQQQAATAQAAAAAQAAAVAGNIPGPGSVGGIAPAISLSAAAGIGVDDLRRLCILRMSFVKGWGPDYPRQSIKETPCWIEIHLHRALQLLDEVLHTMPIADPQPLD
Briefly: FRET or BRET; BRETn screen in live cells: Nluc-tagged SMAD4 against Venus-tagged proteins of the OncoPPI v2 library (556 genes); hits at FOC >= 1.5 and P <= 0.05. As to conditions: remark: other sources report otherwise. A general note: In BRET a luciferase serves as donor, and the signal depends on an acceptor being close.

The target in assay [2] is T2, GST-SMAD4 (full-length, WT) (human), Q13485.
T2 chain: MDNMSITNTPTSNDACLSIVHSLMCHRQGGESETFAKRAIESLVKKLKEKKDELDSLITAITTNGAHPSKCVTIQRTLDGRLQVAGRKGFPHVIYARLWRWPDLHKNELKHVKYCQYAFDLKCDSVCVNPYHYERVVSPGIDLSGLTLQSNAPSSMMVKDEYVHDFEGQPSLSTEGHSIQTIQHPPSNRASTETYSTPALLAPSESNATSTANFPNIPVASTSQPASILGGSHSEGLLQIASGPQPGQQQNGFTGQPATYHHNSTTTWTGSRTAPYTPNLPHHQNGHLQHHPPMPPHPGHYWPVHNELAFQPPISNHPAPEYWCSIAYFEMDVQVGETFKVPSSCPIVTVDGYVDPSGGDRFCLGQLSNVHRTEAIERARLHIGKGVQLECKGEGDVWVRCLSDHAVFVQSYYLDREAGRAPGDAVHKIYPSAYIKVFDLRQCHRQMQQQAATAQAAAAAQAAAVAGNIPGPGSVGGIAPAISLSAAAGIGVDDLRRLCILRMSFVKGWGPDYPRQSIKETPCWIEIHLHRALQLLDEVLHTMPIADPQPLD
Briefly: pull-down; GST-pulldown from lysates of HEK293T cells co-expressing a GST-tagged and a VF-tagged protein, then immunoblotting; in some panels cells treated with TGF-β (10 ng/ml, 4 h), SB431542 (10 μM, 1 h), ionomycin 10 μM + PMA 1 μM (4 h) or CsA (10 μM, 1 h). As to conditions: remark: other sources report otherwise. (In general: In western blotting, separated proteins are transferred to a membrane and probed.)

The target in assay [3] is T2, GST-SMAD4 (full-length, WT) (human), …. The assay is described as follows: FRET or BRET; TR-FRET screen in cell lysates, orthogonal to the BRET screen; hits at FOC >= 1.5 and P <= 0.05. As to conditions: remark: other sources report otherwise.
Assay [4] addresses GST-tagged SMAD4 MH1 domain truncation (1-142 amino acids) (human) (UniProt Q13485). The assay is described as follows: FRET or BRET; TR-FRET of single pairs: GST-SMAD4 (WT, domain truncations, truncation mutants) with VF-tagged partners; signal as fold change over empty vector controls.
The target in assay [5] is Nanoluc (Nluc)-tagged SMAD4 (human) (UniProt Q13485). The assay is described as follows: FRET or BRET; BRETn screen in live cells: Nluc-tagged SMAD4 against Venus-tagged proteins of the OncoPPI v2 library (556 genes); hits at FOC >= 1.5 and P <= 0.05.
The target of assay [6] is GST-SMAD4 (full-length, WT) (human) (UniProt Q13485). The assay is described as follows: FRET or BRET; TR-FRET screen in cell lysates, orthogonal to the BRET screen; hits at FOC >= 1.5 and P <= 0.05.
The target in assay [7] is GST-tagged SMAD4 MH1 domain truncation (1-142 amino acids) (human) (UniProt Q13485). The assay is described as follows: pull-down; GST-pulldown from lysates of HEK293T cells co-expressing a GST-tagged and a VF-tagged protein, then immunoblotting; in some panels cells treated with TGF-β (10 ng/ml, 4 h), SB431542 (10 μM, 1 h), ionomycin 10 μM + PMA 1 μM (4 h) or CsA (10 μM, 1 h).

In assay [8] the target is GST-tagged SMAD4 R361C (human) (UniProt Q13485). Described as above.
For assay [9], the target named is GST-tagged SMAD4 R361H (human) (UniProt Q13485). The assay is described as above.
Assay [10] concerns the target GST-tagged SMAD4 linker region truncation (143-318 amino acids) (human) (UniProt Q13485). The assay is described as above.
Assay [11] has as its target GST-SMAD4 (full-length, WT) (human) (UniProt Q13485). The assay is described as above.
Assay [12] has as its target GST-tagged SMAD4 MH2 domain truncation (319-552 amino acids) (human) (UniProt Q13485). The assay is described as above.
A further assay addresses GST-tagged cJUN (human) (UniProt P05412). The assay is described as above.
Assay [13] has as its target C-Venus-tagged SMAD4 (human) (UniProt Q13485). Briefly: split reporter; BiFC with N-Venus and C-Venus fusions in transfected Panc-1 cells; imaging and fluorescence of cell lysates.

Results are given in words; binding and its absence hold for the method and conditions named. In cells and extracts the contact can be indirect. Some results given as binding are weak or reduced against the parent protein; the word gives no strength. Where a sequence is shown, tags or fusion partners need not be part of it.

B1: VF-tagged SMAD3, P84022 1-425 (protein)
chain: MSSILPFTPPIVKRLLGWKKGEQNGQEEKWCEKAVKSLVKKLKKTGQLDELEKAITTQNVNTKCITIPRSLDGRLQVSHRKGLPHVIYCRLWRWPDLHSHHELRAMELCEFAFNMKKDEVCVNPYHYQRVETPVLPPVLVPRHTEIPAEFPPLDDYSHSIPENTNFPAGIEPQSNIPETPPPGYLSEDGETSDHQMNHSMDAGSPNLSPNPMSPAHNNLDLQPVTYCEPAFWCSISYYELNQRVGETFHASQPSMTVDGFTDPSNSERFCLGLLSNVNRNAAVELTRRHIGRGVRLYYIGGEVFAECLSDSAIFVQSPNCNQRYGWHPATVCKIPPGCNLKIFNNQEFAALLAQSVNQGFEAVYQLTRMCTIRMSFVKGWGAEYRRQTVTSTPCWIELHLNGPLQWLDKVLTQMGSPSIRCSSVS
On to B1, for which the binding result in [1], in assay [2] and in assay [3] was “binds” each time.

B2: Venus-Flag-tagged NFATc1 (VF-NFATc1), full-length WT (protein, UniProt O95644-2 1-716)
chain: MPSTSFPVPSKFPLGPAAAVFGRGETLGPAPRAGGTMKSAEEEHYGYASSNVSPALPLPTAHSTLPAPCHNLQTSTPGIIPPADHPSGYGAALDGGPAGYFLSSGHTRPDGAPALESPRIEITSCLGLYHNNNQFFHDVEVEDVLPSSKRSPSTATLSLPSLEAYRDPSCLSPASSLSSRSCNSEASSYESNYSYPYASPQTSPWQSPCVSPKTTDPEEGFPRGLGACTLLGSPRHSPSTSPRASVTEESWLGARSSRPASPCNKRKYSLNGRQPPYSPHHSPTPSPHGSPRVSVTDDSWLGNTTQYTSSAIVAAINALTTDSSLDLGDGVPVKSRKTTLEQPPSVALKVEPVGEDLGSPPPPADFAPEDYSSFQHIRKGGFCDQYLAVPQHPYQWAKPKPLSPTSYMSPTLPALDWQLPSHSGPYELRIEVQPKSHHRAHYETEGSRGAVKASAGGHPIVQLHGYLENEPLMLQLFIGTADDRLLRPHAFYQVHRITGKTVSTTSHEAILSNTKVLEIPLLPENSMRAVIDCAGILKLRNSDIELRKGETDIGRKNTRVRLVFRVHVPQPSGRTLSLQVASNPIECSQRSAQELPLVEKQSTDSYPVVGGKKMVLSGHNFLQDSKVIFVEKAPDGHHVWEMEAKTDRDLCKPNSLVVEIPPFRNQRITSPVHVSFYVCNGKRKRSQYQRFTYLPANGNAIFLTVSREHERVGCFF
Regarding B2, the binding entry in assay [4], in assay [5], in assay [6], in assay [7], in [8] and in assay [9] was “binds” throughout. Also, the binding result was “no binding” in assay [10], “binds” in [11], “no binding” in [12] and “binds” with GST-tagged cJUN (human).

B3: N-Venus-tagged NFATc1 (protein, UniProt O95644-2 1-716)
chain: MPSTSFPVPSKFPLGPAAAVFGRGETLGPAPRAGGTMKSAEEEHYGYASSNVSPALPLPTAHSTLPAPCHNLQTSTPGIIPPADHPSGYGAALDGGPAGYFLSSGHTRPDGAPALESPRIEITSCLGLYHNNNQFFHDVEVEDVLPSSKRSPSTATLSLPSLEAYRDPSCLSPASSLSSRSCNSEASSYESNYSYPYASPQTSPWQSPCVSPKTTDPEEGFPRGLGACTLLGSPRHSPSTSPRASVTEESWLGARSSRPASPCNKRKYSLNGRQPPYSPHHSPTPSPHGSPRVSVTDDSWLGNTTQYTSSAIVAAINALTTDSSLDLGDGVPVKSRKTTLEQPPSVALKVEPVGEDLGSPPPPADFAPEDYSSFQHIRKGGFCDQYLAVPQHPYQWAKPKPLSPTSYMSPTLPALDWQLPSHSGPYELRIEVQPKSHHRAHYETEGSRGAVKASAGGHPIVQLHGYLENEPLMLQLFIGTADDRLLRPHAFYQVHRITGKTVSTTSHEAILSNTKVLEIPLLPENSMRAVIDCAGILKLRNSDIELRKGETDIGRKNTRVRLVFRVHVPQPSGRTLSLQVASNPIECSQRSAQELPLVEKQSTDSYPVVGGKKMVLSGHNFLQDSKVIFVEKAPDGHHVWEMEAKTDRDLCKPNSLVVEIPPFRNQRITSPVHVSFYVCNGKRKRSQYQRFTYLPANGNAIFLTVSREHERVGCFF
With B3, in [13], the binding result is “binds”.
